In article PMC4336329 (PLoS ONE, 2015):
The whole screen tested about 310,000 compounds, of which about 14,000 (4.5%) showed an effect of 50% or more. Effects have a minus sign here. The list shows a part of the results.

What follows are compounds tested against human ether-à-go-go-related gene (hERG) potassium channel (human, UniProt Q12809) (assay: primary screen, population patch clamp on CHO cells stably expressing hERG).
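Note: peak tail current of the secondary pulse compared with the same well before compound.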

human ether-à-go-go-related gene (hERG) potassium channel, sequence (Q12809 whole entry, looked up): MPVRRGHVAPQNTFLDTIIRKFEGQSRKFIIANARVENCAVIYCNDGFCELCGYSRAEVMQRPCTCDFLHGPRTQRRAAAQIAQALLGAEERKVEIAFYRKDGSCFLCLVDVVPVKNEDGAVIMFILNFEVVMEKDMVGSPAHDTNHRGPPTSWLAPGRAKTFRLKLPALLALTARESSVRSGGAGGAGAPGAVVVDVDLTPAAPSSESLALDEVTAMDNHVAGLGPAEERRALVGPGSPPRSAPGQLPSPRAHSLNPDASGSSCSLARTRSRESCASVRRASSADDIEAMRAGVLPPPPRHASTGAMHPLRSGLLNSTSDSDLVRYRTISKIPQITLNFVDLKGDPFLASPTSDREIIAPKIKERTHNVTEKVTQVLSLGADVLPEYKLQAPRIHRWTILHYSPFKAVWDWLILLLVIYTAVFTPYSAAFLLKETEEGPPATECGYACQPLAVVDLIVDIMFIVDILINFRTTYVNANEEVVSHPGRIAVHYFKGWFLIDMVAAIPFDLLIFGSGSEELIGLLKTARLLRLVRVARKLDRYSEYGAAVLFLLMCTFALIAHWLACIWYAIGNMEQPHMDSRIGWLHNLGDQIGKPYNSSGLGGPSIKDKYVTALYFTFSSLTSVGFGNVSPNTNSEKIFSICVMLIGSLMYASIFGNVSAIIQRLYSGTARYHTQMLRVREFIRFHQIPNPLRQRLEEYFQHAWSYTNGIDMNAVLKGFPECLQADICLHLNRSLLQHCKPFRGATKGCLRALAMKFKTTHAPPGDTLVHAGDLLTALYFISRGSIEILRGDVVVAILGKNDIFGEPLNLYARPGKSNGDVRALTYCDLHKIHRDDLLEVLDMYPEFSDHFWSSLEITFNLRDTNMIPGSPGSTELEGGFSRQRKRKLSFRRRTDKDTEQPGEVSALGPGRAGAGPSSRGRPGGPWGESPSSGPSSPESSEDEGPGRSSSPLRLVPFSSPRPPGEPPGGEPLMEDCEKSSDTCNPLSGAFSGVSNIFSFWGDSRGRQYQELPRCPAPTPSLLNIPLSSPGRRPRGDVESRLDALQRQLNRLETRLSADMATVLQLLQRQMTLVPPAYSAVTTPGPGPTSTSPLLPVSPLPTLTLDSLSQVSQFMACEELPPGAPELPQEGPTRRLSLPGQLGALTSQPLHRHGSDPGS

Compound | hERG current change (%, negative = inhibition) at 10uM [%]
CCOC(=O)C1(Cc2ccccc2)CCCN(S(=O)(=O)N(C)C)C1 (stereo not shown) | -6.05
COc1ccc(OCC(=O)Nc2nc3c(s2)CCCC3)cc1 | -3.56
CCOC(=O)CC(=O)Nc1c(C)cc(C)cc1C | 4.74
Cc1ccc(C)c(N(CC(=O)NC2CCCCC2)C(=O)c2csnn2)c1 | 18.9
CCn1c(SCc2nc3ccccc3[nH]2)nnc1-c1cccnc1 | 18.4
O=C1CCN(C(=O)/C=C/c2ccccc2)c2ccccc21 | -19.6
COc1cccc(OC)c1Oc1ccc(C(F)(F)F)cn1 | -3.92
CCOC(=O)C1=C(N)Oc2cc(C)n(CCc3ccc(OC)c(OC)c3)c(=O)c2C1c1cccnc1 (stereo not shown) | -16.4
c1ccc(-c2cc(-c3ccccc3)n3ncnc3n2)cc1 | -49.5
CCC1CCCCN1S(=O)(=O)c1ccc(NC(=O)C2CCN(C(=O)c3ccco3)CC2)cc1 (stereo not shown) | -24
CCOC(=O)c1c(N)sc(C(C)=O)c1C | 10.5
N#Cc1cc([N+](=O)[O-])cnc1NCC(O)CO (stereo not shown) | -0.657
CC(C)NC(=O)CSc1nc2ccccc2c(=O)n1CCCOC(C)C | 7.37
CCn1c(SCC(=O)Nc2nonc2C)nnc1-c1ccco1 | -8.38
O=c1ccc(C(F)(F)F)cn1Cc1cc(=O)n2cc(Br)ccc2n1 | -6.81
Cc1ccc(N2CC(NS(=O)(=O)c3cccs3)CC2=O)cc1 (stereo not shown) | 7.53
CSc1nc2cc(F)c(F)cc2n1C | -1.51
C/C(N)=C(/C#N)C(=O)CSc1nnc(SCc2ccc(Cl)cc2)s1 | -3.99
CCOC(=O)c1ccc[n+](CC(=O)Nc2ccccc2OC(F)F)c1.[Cl-] | 4.85
O=C(Nc1ccccc1)NC1CCN(Cc2nnnn2C2CCCCC2)CC1 | -29.2
Cc1cc(C)c2c3c(sc2n1)C(=O)N(Cc1ccccc1)CC(=O)N3 | -26
S=c1[nH]nc(-c2ccccn2)n1/N=C/c1c(Cl)cccc1Cl | 19.5
O=C(CCN1CCCCCC1)Nc1ccc(F)c(F)c1 | -43.1

Compound | hERG current change (%, negative = inhibition) at 10uM [%]
CC1CCc2c(sc(NC(=O)Cn3nc(C(F)(F)F)c4c3CCCCC4)c2C#N)C1 (stereo not shown) | 6.82
Cc1ccc(/C=C2\SC(=S)N(CCC(=O)NNC(=O)c3ccncc3)C2=O)cc1 | 12.9
O=C(CN1CCCCC1)Nc1c2c(nc3ccccc13)N(c1ccccc1)CC2.O=C(O)C(=O)O | 3.12
Cl.OC(COCC1COc2ccccc2O1)CN1CCCCC1 (stereo not shown) | -43.6
O=C(Nc1cccc(NC(=O)N2CCN(c3ccccc3)CC2)c1)N1CCN(c2ccccc2)CC1 | -44.4
O=C(O)c1nn(CCOc2cccc(Cl)c2)c(=O)c2ccccc12 | -10.6
Cc1ccc(SCC(=O)Nc2ccc(N3CCOCC3)cc2)c(C)c1 | 10.5
CCOc1cc(CN2CCN(c3ncccn3)CC2)ccc1OC | -4.8
COc1ccc(/C=N/NC(=O)c2snnc2C)c(OC)c1OC | 2.98
CCOc1ccc(-n2cnnn2)cc1S(=O)(=O)NC1CC1 | -0.281
CC(=O)Nc1ccc(S(=O)(=O)N2CCN(C34CC5CC(CC(C5)C3)C4)CC2)cc1 | -3.7
Cc1ccc(S(=O)(=O)N2CCCC2CNC(=O)C(=O)NC2CCCC2)cc1 (stereo not shown) | -40.3
Cc1nnnn1/C(=C\c1ccccc1)C(=O)OCC(=O)Nc1ccc(Cl)cc1F | -13.7
CCCCn1c(=O)c(C(=O)NCc2ccccc2)c(O)c2ccccc21 | 17.2
COCc1cc(=O)[nH]c(/N=C(\N)Nc2ccc(Oc3ccccc3)cc2)n1 | -20.8
O=c1[nH]c(=S)[nH]c(O)c1N=Nc1cc(S(=O)(=O)Nc2ccc(Cl)cc2)ccc1Cl | 3.52
C=CCNC(=O)CN1C(=O)C2C3c4ccccc4C(c4ccccc43)C2C1=O (stereo not shown) | 26.9
CCCn1nnc2ccccc2c1=O | -4.09
Cc1ccc(C(=O)NNC(=O)C2CCN(S(=O)(=O)c3ccc(C)cc3)CC2)cc1 | -3.49
CC(C)CNc1ncnc2c1sc1nc(N3CCOCC3)c3c(c12)CC(C)(C)OC3 | -4.77
O=C(N/N=C/c1cccc([N+](=O)[O-])c1O)C(O)(c1ccccc1)c1ccccc1 | 8.16
O=C1NC(=O)C2C3c4ccccc4C(c4ccccc43)C12 (stereo not shown) | -11.5
Cc1ccc(-c2ocnc2C(=O)N2CCN(C(=O)c3cccs3)CC2)cc1 | 0.043

Compound | hERG current change (%, negative = inhibition) at 10uM [%]
c1ccc(-c2ncc(CSc3nncn3-c3ccccc3)s2)cc1 | -24
CCOc1ccc(CC(=O)N/N=C/c2cccnc2)cc1 | 9.88
O=C(COC(=O)c1ccc[nH]c1=O)NC1CCCCC1 | 7.99
CCN(c1ccccc1)S(=O)(=O)c1ccc(OC)c(NC(=O)CNC)c1.O=C(O)C(=O)O | 13.6
COc1cc(NC(=O)c2ccccn2)cc(OC)c1OC | 13.2
CCOC(=O)C1CCN(C(=O)COC(=O)COc2ccc(Cl)cc2)CC1 | 13.3
COC(=O)[C@H](CCSC)NC(=O)Nc1cc(C)ccc1C | 11
COc1ccc(/C=C2\SC(=N)N(c3ccc(F)cc3)C2=O)cc1 | 17.6
CCOc1cc2[nH]c(=O)n(CC3CCC(C(=O)NCCCOC)CC3)c(=O)c2cc1OCC (stereo not shown) | 17.5
Cc1ccc(CN2CC(C(=O)Nc3ccc4c(C)cc(=O)oc4c3)CC2=O)cc1 (stereo not shown) | 4.88
CCN(CCCNC(=O)c1nn(C)c2c1CS(=O)(=O)c1ccccc1-2)Cc1ccccc1 | -60.3
COc1ccc(CNC(=O)/C=C/c2cc3c(cc2Br)OCO3)cc1 | 9.67
CCCCNC(=O)O/N=C(\N)CS(=O)(=O)C(C)(C)C | -3.57
CCC1CCc2sc(C(=O)NNC(=O)c3ccncc3)cc2C1 (stereo not shown) | -16.2
CCC(C)C(NC(=O)C1CCC(C)CC1)C(=O)NCCc1ccc(S(N)(=O)=O)cc1 (stereo not shown) | 4.32
C=CCN(c1ccc(C(=O)N2CCN(c3ccc(F)cc3)CC2)cc1)S(C)(=O)=O | -43.7
O=C(CSc1ncnc2c1nnn2Cc1ccc(F)cc1)NCC1CCCO1 (stereo not shown) | -30.5
COc1cc(CCNc2ccc3nnc(-c4ccccc4)n3n2)cc(OC)c1OC | -14
CCc1cc2c(C)cc(C)cc2nc1SCC(=O)Nc1cc(C)on1 | 24.7
O=C(Nc1nc(-c2ccc3c(c2)Cc2ccccc2-3)cs1)c1ccccc1 | 20.4
CCCOc1ccc(-c2nc(-c3ccc([N+](=O)[O-])cc3)cs2)cc1 | 25.9
CC1CCN(c2ccc(NC(=O)c3ccc(Br)o3)cc2)CC1 | -2.82
COc1ccc2[nH]c3c(Cl)ncnc3c2c1 | -1.57

Compound | hERG current change (%, negative = inhibition) at 10uM [%]
Cc1[nH]c2ccccc2c1C(c1ccccn1)N1CCC(C)CC1 (stereo not shown) | -46.9
COc1cc(CCC(C)NCc2ccccc2)ccc1O (stereo not shown) | -3.87
Nc1nnc(CCCCCc2nnc(N)s2)s1 | 13.3
Cc1nnc(N(C)C(=O)c2ccccn2)s1 | 13.2
Fc1ccccc1Nc1ncnc2c1nnn2Cc1ccccc1 | -20
COC(=O)Nc1ccc(Oc2ccccc2)cc1 | -29.9
CCn1nnnc1SCC(=O)N1CCCCC1 | 11.5
N#CCC(=O)N/N=C/c1cn(Cc2ccc(Cl)c(Cl)c2)c2ccccc12 | 12.6
CCCCN(C)C1CCN(C(=S)Nc2cccc(OC)c2)CC1 | -19.9
CCCn1c(C)cc(/C=C(\C#N)C(=O)O)c1C | 10.4
CC(NC(=O)c1ccc(S(=O)(=O)N(C)C)cc1)c1ccccc1 (stereo not shown) | 0.971
CC(C)NC(=O)C(=O)NNC(=O)C12CC3CC(CC(C3)C1)C2 | 15.4
Cc1ccc(S(=O)(=O)N(C)C)cc1NC(=O)COC(=O)/C=C/c1ccc2c(c1)OCO2 | -9.63
Cc1cc(CN2CCOCC2)c(O)c(C2(C)CCCCC2)c1 | 12.2
CC(=O)/C(=C/c1ccc(N(C)C)cc1)C(=O)c1ccccc1 | 14.7
CC(=O)NC(Cc1ccccc1F)C(=O)NC1CCN(C(=O)Nc2ccc(C)cc2)CC1 (stereo not shown) | -4.62
CC1(NC(=O)Nc2ccccc2)CCS(=O)(=O)C1 (stereo not shown) | -53
FC(F)Oc1ccccc1/C=N/Nc1nc2ccccc2o1 | 33.5
CC(C)n1c(SCC(=O)NC2CCCCC2)nnc1-c1ccco1 | -15.4
COC(=O)CNC(=O)c1ccccc1F | 14.9
CC(C(=O)N1CCN=C1c1ccccc1)N1C(=O)c2ccccc2C1=O (stereo not shown) | 25.9
CCOC(=O)CSc1nnc(-c2ccco2)n1-c1ccccc1 | -27.6
